Hit rate of the full screen: of about 45,000 compounds, about 200 (0.44%) were called active. Roughly 7% stayed inconclusive and do not appear here. Calls come from the whole dose curve; as a rule, active = well fitted activation curve with a large enough effect; inconclusive = small, poorly fitted or top-dose-only effect; inactive = no such curve, though single readings can be large or run the other way. This is one part of the list.
assay: qHTS of TDP-43 Inhibitors: NCGC Sytravon Library Screen; details: yeast TDP-43 toxicity rescue, BacTiter-Glo growth, 24 h; series mostly up to 46.1 µM; growth rescue (activation): at the top concentration; note: 0% is about no effect; nearly all actives have a fitted effect of over 55% in size
Outline: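 TDP-43-expressing yeast, pregrown in raffinose, seeded at OD600 0.02 in galactose medium with compound for 24 hr at 30 deg C. Growth read by BacTiter-Glo luminescence, so rescue of toxicity appears as activation.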

Row | Compound | growth rescue (activation)
1 | Cc1ccc(S(=O)(=O)N2CCCC(C(=O)NCc3ccc4c(c3)OCO4)C2)cc1 (configuration not stated) | inactive: -6.38%
2 | CC(=O)Nc1cnc(-c2ccccc2O)cn1 | inactive: -0.825%
3 | CCCc1nnc(SCC(=O)NC2CCCC2)n1CCOC | inactive: 7.57%
4 | COc1ccccc1-c1nc(-c2ccccc2)[nH]c(=O)c1C#N | inactive: 11.4%
5 | CC(C)CC(N)c1csc(Nc2ccc(C(=O)N(C)Cc3ccccc3)cn2)n1 (configuration not stated) | inactive: -5.92%
6 | COc1ccc2c(c1)c(C(=O)CN1CCC3(CC1)OCCO3)c(C)n2C | inactive: 3.96%
7 | O=C(c1cccc(C(F)(F)F)c1)N(c1ccccn1)C1CCCCC1 | inactive: 1.04%
8 | CC(C)CNc1nc(N)c([N+](=O)[O-])c(N2CCCCCC2)n1 | inactive: 8.15%
9 | CC(=O)NN1C(=O)c2ccccc2NC1c1ccccc1 (configuration not stated) | inactive: -19.6%
10 | COc1ccc(Cl)cc1NC(=O)CN1CCN(S(=O)(=O)N2CCC(C)CC2)CC1 | inactive: 17.3%
11 | CN1CCC(N(C)C(=O)c2cccc(S(=O)(=O)N3CCc4ccccc43)c2)CC1 | inactive: 2.54%
12 | N#Cc1ccc(C(=O)Nc2cc(S(=O)(=O)Nc3ccc(Cl)cc3)ccc2N2CCCCC2)cc1 | inactive: -14%
13 | CCOC(=O)c1cc(OC)c2cccc(CN3CCC(C)(C(=O)NCCOC)C3)c2c1 (configuration not stated) | inactive: 4.41%
14 | COc1cc(/C=c2\s/c(=C\C(=O)C(C)(C)C)[nH]c2=O)cc(OC)c1OC | inactive: 17.4%
15 | CCN1CCN(c2ccc(NC(=O)COc3ccc([N+](=O)[O-])cc3)cc2)CC1 | inactive: 3.03%
16 | O=[N+]([O-])c1cccc(-c2nnc3ccc4ccccc4n23)c1 | inactive: 9.9%
17 | C=CCSc1nc2sc3c(c2c(=O)[nH]1)CC(C)(CC)OC3 (configuration not stated) | inactive: 9.96%
18 | Cc1ccc(NC(=O)c2ccc(S(=O)(=O)N3CCOCC3)cc2)cc1 | inactive: 11%
19 | CCOc1ccc(-n2c(-c3ccc(Br)cc3)c[n+]3c2CCCCC3)cc1 | inactive: 0.836%
20 | Cc1ccc2c(c1)N(CC(=O)NCCCN1CCOCC1)C(=O)C(C(C)C)O2 (configuration not stated) | inactive: -17.5%
21 | CN1CCC(=NNc2ccc(S(=O)(=O)N3CCOCC3)cc2[N+](=O)[O-])CC1 | inactive: 7.86%
22 | CC(C(=O)N1CCCCC1)n1sc2ccccc2c1=O (configuration not stated) | inactive: 5.43%

Row | Compound | growth rescue (activation)
23 | O=C(COc1ccccc1Cl)Nc1ccc(CN2CCCCC2)cc1 | inactive: -1.8%
24 | Cc1ccc(Cl)cc1NC(=O)c1ccc(Cn2cc(Cl)cn2)cc1 | inactive: 22.6%
25 | CC1CCN(C(=O)COc2ccc(S(=O)(=O)N3CCCC3)cc2)CC1 | inactive: 3.35%
26 | O=C(Cc1ccsc1)Nc1ccccc1F | inactive: 11.7%
27 | O=C(CN(C(=O)c1csnn1)c1cccc2ccccc12)NCc1ccc(F)cc1 | inactive: 0.186%
28 | CN(C)/C=C/C1=C([N+](=O)[O-])C(c2cccc([N+](=O)[O-])c2)NC(=O)N1 (configuration not stated) | inactive: 10.4%
29 | COc1ccccc1NC(=O)NC1(C)CCS(=O)(=O)C1 (configuration not stated) | inactive: 17.6%
30 | CCN(CC(=O)Nc1ccc(C(=O)OC)cc1)C1CCCCC1 | inactive: 16%
31 | Cc1ccccc1-n1ncc2c1CC(C)(C)CC2NC(=O)C1=CC(=O)CC(C)(C)O1 (configuration not stated) | inactive: 18.6%
32 | COc1ccc(NC(=O)CCNS(=O)(=O)c2ccc(C)c(C)c2)cc1OC | inactive: 2.19%
33 | O=c1nc(Nc2ccc([N+](=O)[O-])cc2)[nH]c(=O)[nH]1 | inactive: 12.7%
34 | CN(CCCN1CCOCC1)C(=O)c1cc(COc2c(F)cccc2F)on1 | inactive: -1.49%
35 | CC(=O)NN1C(=O)c2ccccc2NC1c1ccccc1O (configuration not stated) | inactive: -15.5%
36 | O=c1c2oc3ccccc3c2ncn1Cc1cccc(Cl)c1 | inactive: -8.12%
37 | Cc1cccc(C(=O)Nc2nnc(COc3ccccc3)s2)c1 | inactive: 12%
38 | COc1ccc(CC(=O)OCC(=O)NCc2ccc(C)cc2)cc1OC | inactive: 23.4%
39 | Cc1ccc(C(=O)c2ccccc2C(=O)OCC(=O)NCCc2ccccc2)cc1 | inactive: 25.5%
40 | CC(=O)c1ccc(NC(=O)C(C)Sc2nnc(-c3ccncc3)n2C2CC2)cc1 (configuration not stated) | inactive: 10.6%
41 | Cc1cnc(C(=O)Nc2cccc(S(=O)(=O)N(C)C)c2)cn1 | inactive: 4.97%
42 | Cc1cc(C=O)c(C)n1-c1cc(C(F)(F)F)ccc1N1CCOCC1 | inactive: 22.4%
43 | COc1ccc(OC)c(NC(=O)C2C(C(=O)O)C3(Cl)C(Cl)=C(Cl)C2(Cl)C3(Cl)Cl)c1 (configuration not stated) | inactive: -9.37%
44 | CCCc1cc(=O)[nH]c(Nc2ccc(OCC)cc2)n1 | inactive: 14.8%

Row | Compound | growth rescue (activation)
45 | Cc1nc(NC(=O)COC(=O)C2CC3CCCC(C2)C3=O)c(Cl)cc1Cl (configuration not stated) | inactive: 19.7%
46 | CCCCOc1ccc(C2CC(=O)N(C)C2=O)cc1 (configuration not stated) | inactive: -1.38%
47 | Cc1ccsc1/C=N\Nc1cn[nH]c(=O)c1Cl | inactive: -3.04%
48 | COc1cc(C)ccc1OCCOc1c(C)cc(Cl)cc1Cl | inactive: 8.2%
49 | Cc1ccc(S(=O)(=O)NCCNC(=O)c2ccc(C)nc2)cc1 | inactive: -0.319%
50 | Cc1ccccc1C(=O)N1CCN(c2ccc(NC(=O)c3ccc([N+](=O)[O-])o3)cc2)CC1 | inactive: -6%
51 | O=C(Nc1cccnc1)C1(c2ccccc2)CCCC1 | inactive: 39.3%
52 | COc1ccccc1C(=O)NC(=S)Nc1ccc(NC(=O)c2ccco2)cc1 | inactive: 8.01%
53 | O=C(CSc1nc2ccccc2[nH]1)NCCc1ccc(Cl)cc1 | inactive: -7.48%
54 | CN1C(=O)/C(=C/c2cc3c(cc2Br)OCO3)NC1=S | inactive: 9.06%
55 | Cc1sc2ncnc(N[C@@H](Cc3ccccc3)C(=O)O)c2c1C | inactive: -11%
56 | Oc1ccc(N2CCN(c3nc(-c4cccs4)nc4ccccc34)CC2)cc1 | inactive: 21.8%
57 | CN(CCc1cn[nH]c1)Cc1nc(C(c2ccccc2)c2ccccc2)no1 | inactive: 9.8%
58 | O=C(Nc1cccnc1)C1Cc2c(-c3cccc(F)c3)ccnc2O1 (configuration not stated) | inactive: 7.71%
59 | CCOC(=O)CNC(=O)C1(/C=C/c2ccccc2)CC(=O)N1c1ccc(OC)cc1 (configuration not stated) | inactive: -4.3%
60 | Cc1ccc(C(=O)Nc2nc3ccc(S(C)(=O)=O)cc3s2)cc1C | inactive: 0.677%
61 | CC1=C(C(=O)NCc2ccccc2)C(c2cccnc2)n2ncnc2N1 (configuration not stated) | inactive: 5.07%
62 | Cc1ccc(/C([O-])=C(/C(=S)NCc2ccccc2)[n+]2cccc(CO)c2)cc1[N+](=O)[O-] | inactive: -2.92%
63 | CCn1nc(C(=O)NNS(=O)(=O)c2cc(/C=C/C(=O)O)cc(OC)c2OC)c2ccccc2c1=O | inactive: 22.6%
64 | COC(=O)CSc1ccc(S(=O)(=O)N2CCOCC2)cc1[N+](=O)[O-] | inactive: 19.2%
65 | CC1CCCN(C(=O)CN2C(=O)C(C)Oc3ccccc32)C1 (configuration not stated) | inactive: 6.62%
66 | O=C(NCC(=O)N1CCN(S(=O)(=O)/C=C/c2ccccc2)CC1)c1ccc(Cl)cc1 | inactive: -2.05%

Row | Compound | growth rescue (activation)
67 | O=C(NC1CCCCC1)C(c1ccco1)N(C(=O)c1csnn1)c1cccc(F)c1 (configuration not stated) | inactive: -2.6%
68 | O=C(CCc1c[nH]c2ccccc12)N1CCCC1 | inactive: 7.82%
69 | CC(C)c1cc(=O)n2[nH]c(N)nc2n1 | inactive: -22.8%
70 | CN(C(=O)c1ccc(N2CCCCC2)c([N+](=O)[O-])c1)C1CCS(=O)(=O)C1 (configuration not stated) | inactive: 6.19%
71 | CC1CCN(c2c(NCc3ccc(C(=O)NCc4ccccc4)cc3)c(=O)c2=O)CC1 | inactive: 0.0613%
72 | Cc1ccc2nc(Nc3nc(C)cc(-c4ccccc4)n3)[nH]c(=O)c2c1 | inactive: 5.72%
73 | Cc1nn(C)cc1C(=O)Nc1ccc2c(c1)OCCO2 | inactive: -2.27%
74 | COc1ccccc1NC(=O)c1ccc(NS(=O)(=O)c2ccc(F)c(Cl)c2)cc1 | inactive: 11.7%
75 | CC(C)OC(=O)CC1C(=O)NCCN1C(=S)NC(=O)c1ccccc1Cl (configuration not stated) | inactive: -25.1%
76 | Cc1csc(NC(=S)NC(=O)c2ccccc2)n1 | inactive: 10.3%
77 | Cc1[nH][nH]c(=O)c1C(c1ccc(-c2cccc(Cl)c2)o1)c1c(C)[nH][nH]c1=O | inactive: 26.6%
78 | Cc1cc(-c2ccccc2)nc(SCC(=O)N2CCCC2)n1 | inactive: 2.97%
79 | CCN(CC)S(=O)(=O)c1cccc(NC(=O)CN2C(=O)NC3(CCC(C)CC3)C2=O)c1 (configuration not stated) | inactive: 22.4%
80 | CCN(C(=O)c1nn(-c2ccc(OC)cc2)c(=O)c2c1c1ccccc1n2C)c1ccc(OC)cc1 | inactive: 4.81%
81 | CCc1cccc(CC)c1NC(=O)COC(=O)c1ccc(F)c(S(=O)(=O)N(CC)CC)c1 | inactive: -3.01%
82 | CC(=O)Nc1ccc(-c2csc(N/N=C(/C)c3ccccc3)n2)cc1 | inactive: 11.7%
83 | CCc1ccc(C(=O)COC(=O)CNC(=O)COc2ccccc2)cc1 | inactive: 6.1%
84 | O=C(NCC1CC1)c1ccc2sc([C@H]3C[C@H](O)[C@@H](CO)O3)nc2c1 | inactive: 3.66%
85 | O=C(CCCOc1ccc(Cl)cc1Cl)NCCCn1ccnc1 | inactive: -1.15%
86 | O=S(=O)(c1ccc(NC(=S)NCCc2ccccc2)cc1)N1CCOCC1 | inactive: 10.9%
87 | COc1cc([N+](=O)[O-])ccc1NC(=S)N1CCN(c2ccccn2)CC1 | inactive: -8.42%
88 | CCN1CCN(C(=O)CN(C)S(=O)(=O)c2cc(C)ccc2OC)CC1 | inactive: -12.7%

Row | Compound | growth rescue (activation)
89 | O=C(CSCc1ccc(Cl)cc1)N/N=C/c1ccco1 | inactive: 13.1%
90 | COc1ccc(C(CC(=O)O)NC(=O)Cc2ccccc2)cc1OC (configuration not stated) | inactive: -9.79%
91 | O=C(NC1CCN(C(=O)Nc2cccc(Cl)c2)CC1)c1ccccc1 | inactive: 8.61%
92 | O=C(NNC(=S)NC(=O)c1cccc([N+](=O)[O-])c1)c1ccc(Br)cc1 | inactive: 5.84%
93 | Cc1ccccc1C(=O)NCCCc1ccccc1 | inactive: 26.1%
94 | O=c1[nH]ncn2cccc12 | inactive: 8.85%
95 | COc1ccc(OC)c(Cc2nnc(CCC(=O)NCc3ccsc3)o2)c1 | inactive: 10.1%
96 | CCOC(=O)N1CCN(CC(=O)Nc2ccc(Oc3ccccc3)cc2)CC1 | inactive: 35.9%
97 | O=C(CN1C(=O)CCC1=O)NC(=O)NC1CCCC1 | inactive: 2.5%
98 | Cc1ccc(-n2c(SCc3ccc(C(=O)O)cc3)nnc2-c2ccncc2)cc1 | inactive: -10.3%
99 | CCOC(=O)c1cccc(NC(=O)CCn2cccc2)c1 | inactive: 1.61%
100 | Cc1cc(=O)[nH]c(SCC(=O)c2ccc(O)c(O)c2)n1 | inactive: -3.87%
101 | O=C(CN1C(=O)C2CCCCC2C1=O)Nc1ccccc1C(=O)O (configuration not stated) | inactive: 3.59%
102 | CCc1nc2ccc(C(=O)N(C)CCN(C)C)cn2c1N(C)Cc1cc2ccccc2s1 | inactive: -7.07%
103 | CCN(CC(=O)NC1CCS(=O)(=O)C1)S(=O)(=O)c1ccc(C)c(C)c1 (configuration not stated) | inactive: -33.9%
104 | N#Cc1nc(-c2ccccc2F)oc1NCCc1ccccn1 | inactive: 37.7%
105 | O=C(CSc1nc(-c2ccc(F)cc2)nc2ccc(F)cc12)Nc1cccc(C(=O)O)c1 | inactive: 22.2%
106 | COc1ccccc1NC(=O)c1ccc(NC(=O)COC(=O)CC(NC(=O)c2ccccc2Cl)c2ccccc2)cc1 (configuration not stated) | inactive: 15.2%
107 | Cn1ccnc1SCC(=O)c1c(N)n(C)c(=O)n(C)c1=O | inactive: 4.03%

Source: PubChem BioAssay AID1347073 (National Center for Advancing Translational Sciences (NCATS), 2019)
